Laboratory results: PMC4336329 (PLoS ONE, 2015)
Among all 310,000 compounds or so, about 14,000 (4.5%) showed an effect of 50% or more. The effect is printed as a negative number. The list shows a part of the results.

molecular target: human ether-à-go-go-related gene (hERG) potassium channel (human, UniProt Q12809); experiment: primary screen, population patch clamp on CHO cells stably expressing hERG
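Further: peak tail current of the secondary pulse compared with the same well before compound.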

Chain of human ether-à-go-go-related gene (hERG) potassium channel (Q12809 whole entry, looked up): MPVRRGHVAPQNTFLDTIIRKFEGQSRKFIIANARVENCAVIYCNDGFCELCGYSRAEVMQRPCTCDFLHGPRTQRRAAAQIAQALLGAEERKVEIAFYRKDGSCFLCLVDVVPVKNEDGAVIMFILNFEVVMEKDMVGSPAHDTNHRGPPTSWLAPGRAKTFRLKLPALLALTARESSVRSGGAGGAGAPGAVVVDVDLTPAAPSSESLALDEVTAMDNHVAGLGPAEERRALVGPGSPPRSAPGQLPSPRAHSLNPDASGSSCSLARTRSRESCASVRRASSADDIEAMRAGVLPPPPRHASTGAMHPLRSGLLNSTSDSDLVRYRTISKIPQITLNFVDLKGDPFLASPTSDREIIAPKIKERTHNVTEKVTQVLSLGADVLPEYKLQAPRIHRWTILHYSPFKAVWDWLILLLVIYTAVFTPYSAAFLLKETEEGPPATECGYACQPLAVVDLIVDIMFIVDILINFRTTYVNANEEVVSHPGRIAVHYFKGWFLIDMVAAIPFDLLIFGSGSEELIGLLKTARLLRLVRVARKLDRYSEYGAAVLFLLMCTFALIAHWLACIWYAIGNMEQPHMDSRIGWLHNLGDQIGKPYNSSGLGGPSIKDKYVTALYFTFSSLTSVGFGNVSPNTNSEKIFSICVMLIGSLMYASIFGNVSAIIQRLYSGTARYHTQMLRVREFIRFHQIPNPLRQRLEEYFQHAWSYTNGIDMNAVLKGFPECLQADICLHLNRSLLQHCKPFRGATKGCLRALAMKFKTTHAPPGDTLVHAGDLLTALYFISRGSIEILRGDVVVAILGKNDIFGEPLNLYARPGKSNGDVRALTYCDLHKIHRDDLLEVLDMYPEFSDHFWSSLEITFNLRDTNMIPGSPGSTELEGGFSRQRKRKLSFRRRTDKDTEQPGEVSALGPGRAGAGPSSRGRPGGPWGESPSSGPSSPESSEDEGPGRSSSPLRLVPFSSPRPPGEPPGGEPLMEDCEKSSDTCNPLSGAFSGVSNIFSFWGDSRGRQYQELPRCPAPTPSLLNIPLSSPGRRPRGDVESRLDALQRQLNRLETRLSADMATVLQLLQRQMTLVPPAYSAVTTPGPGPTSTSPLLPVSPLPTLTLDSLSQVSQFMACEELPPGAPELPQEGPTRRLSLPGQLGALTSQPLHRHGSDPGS

Compound	hERG current change (%, negative = inhibition) at 10uM [%]
OCCC1CN(Cc2ccncc2)CCN1C1CCCC1 (centres unmarked)	-8.58
CC1CC(C)CN(CCCNC(=O)c2ccc(CS(=O)(=O)Cc3cccc(Cl)c3)o2)C1 (centres unmarked)	-69.1
COc1ccc(C)cc1NC(=O)c1cccc(C(=O)Nc2cc(C)ccc2OC)n1	1.3
COc1ccc(NC(=O)CC2C(=O)N(Cc3cccs3)C(=S)N2C(C)C)cc1 (centres unmarked)	4.67
CCc1cc(=O)oc2cc(OS(C)(=O)=O)ccc12	-5.44
O=C(CSc1nc2ncc(Cl)cc2[nH]1)Nc1ccccc1-c1ccccc1	14.5
CN1CCN(C(=O)/C=C/c2ccc(C#N)cc2)CC1	-54.3
CC(=O)NC(C)Cc1cn(Cc2ccccc2)c2ccccc12 (centres unmarked)	16.3
COc1ccc(-n2nc(C)c3c(=O)c4c([nH]c32)CCCC4)cc1	4.08
CCN(CC)S(=O)(=O)c1ccc(-c2nnc(SCC(=O)Nc3ccc(OC)c(OC)c3)o2)cc1	-8.44
COc1cc(CNn2cn[nH]c2=S)cc(Cl)c1OCc1ccc(F)cc1	-22.4
Cc1nn(CC(=O)Nc2sc3c(c2C#N)CCC(C(C)(C)C)C3)c(C)c1[N+](=O)[O-] (centres unmarked)	8.48
COc1c(S(=O)(=O)NCCCN2CCOCC2)ccc(Cl)c1Cl	-6.95
CC(C)CC(c1nnnn1C(C)(C)C)N1CCN(C2CCCC2)CC1.Cl (centres unmarked)	-5.12
CCN1CCN(Cc2ccc(NC(=O)c3ccc(C)c(NC(=O)N4CCNC4=O)c3)cc2C(F)(F)F)CC1.O=C(O)C(F)(F)F	3.66
O=S(=O)(c1ccc(=S)[nH]c1)N1CCOCC1	4.93
Cc1ccc(NC(=O)c2cc(C)nc3ccccc23)c(Br)c1	-15.2
CC(C)(C)NS(=O)(=O)c1ccc(-c2csnn2)s1	-1.05
O=S(=O)(Nc1cccc(-c2ccc(N3CCOCC3)nn2)c1)c1cc(Cl)ccc1Cl	-26.8
Cn1cc(C(c2ccccn2)c2cn(C)c3ccccc23)c2ccccc21	8.3
CCOCCn1cnc2sc(C(=O)NCCCN3CCOCC3)c(C)c2c1=O	4.31
N#C/C(=C\C1=C(N2CCOCC2)C(=C\c2ccc(Cl)cc2)/CC1)C(=O)Nc1ccccc1F	5.55

Compound	hERG current change (%, negative = inhibition) at 10uM [%]
CC(=O)Nc1ccc(NC(=S)NC(=O)C2CC2)cc1	15.6
Br.CCOc1ccccc1OCC(=O)NN1Cc2ccccc2C1=N	-73.5
COc1ccc(CNC(=O)C(NC(C)=O)C(C)C)cc1OC (centres unmarked)	11.5
O=C(O)c1cc2ccc3cccc4ccc(c1)c2c34	5.41
Cc1ccc(S(=O)(=O)N2CCN(C(=O)COC(=O)c3cc(C)oc3C)CC2)cc1	7.79
COC(=O)Cc1c(OC)ccn(CCc2c[nH]c3ccccc23)c1=O	8.74
c1ccc2c(c1)OCC(c1csc3ncnc(N4CCCC4)c13)O2 (centres unmarked)	-36.7
CNc1ccc(C(O)(C(F)(F)F)C(F)(F)F)cc1C(O)(C(F)(F)F)C(F)(F)F	14.6
O=C(Cn1cccc1C(=O)c1ccccc1)NCc1ccc(F)cc1	4.99
COC(=O)[C@]1(CC(C)C)N[C@H](c2ccc(-c3ccc4c(c3)OCO4)cc2)[C@@H]2C(=O)N(C)C(=O)[C@@H]21.O=C(O)C(F)(F)F	14.9
COC(=O)c1ccc(CNC(=O)c2ccc(S(=O)(=O)N3CCCC(C)C3)cc2)cc1 (centres unmarked)	0.555
COc1ccc(-c2nnc(SCc3nnc(-c4ccc(Cl)cc4)o3)n2-c2ccccc2)cc1	-56
N/C(=N\OC(=O)CC1CCCCC1)c1cccnc1	-16.6
COc1ccc(/C=N/NC(=O)c2nc(-c3ccccc3)cc(-c3ccccc3)n2)cc1O	-9.34
CC(NC(=O)/C=C/c1ccco1)c1nc2ccccc2n1Cc1c(Cl)cccc1Cl (centres unmarked)	-11
O=C(Cc1n[nH]c(=O)c2ccccc12)OCC(=O)N(Cc1ccccc1)Cc1ccccc1	-33.9
CCc1ccc(C2NC(=S)NC3=C2C(=O)CC(C)(C)C3)cc1 (centres unmarked)	11.9
Cc1ccc(CC(=O)Nc2cccc(S(=O)(=O)N3CCOCC3)c2)cc1	-21.5
O=C(COC(=O)c1cccc(C(=O)OCC(=O)NC2CC2)n1)NC1CC1	21.5
Cc1ccc(N=C2NC(=O)c3cc([N+](=O)[O-])ccc32)cc1	-3.7
O=C(/C=C\Nc1ccc2c(c1)OCO2)c1ccc(Cl)s1	18.7
CCOc1cc2[nH]c(=S)n(Cc3ccc(C(=O)NCCCOC)cc3)c(=O)c2cc1OCC	24.9

Compound	hERG current change (%, negative = inhibition) at 10uM [%]
CCC(=O)Nc1cccc(-n2nnnc2SCC(=O)N2CCCCC2)c1	15.3
CCO/N=C1\C(=O)N(c2ccccc2)c2ccccc21	1.67
COc1cc(CNC2CCCC2)c(Br)cc1OC1CCCC1.Cl	-45.9
O=C(O)/C(=C\c1ccccc1OC(F)F)Sc1nnc(-c2ccc(F)cc2)o1	-26
CCCN(CCC)c1nc(C#N)nc(N(CCC)CCC)n1	9.42
O=C(CCCn1nnc2ccccc2c1=O)N[C@@H](Cc1ccccc1)C(=O)O	13
O=c1[nH]c2c(cnn2-c2ccc(Cl)cc2)c(=O)n1-c1cccc(Cl)c1	25
O=C(NCc1ccccc1Cl)c1cc2c(s1)CS(=O)(=O)C2	-4.86
O=C(NCC(c1cccs1)N1CCOCC1)c1ccc(Cl)c([N+](=O)[O-])c1 (centres unmarked)	-31.9
CCCOC1CCCN(C(=O)CCc2nnc(CCCCc3ccccc3)o2)C1 (centres unmarked)	-23
COc1ccc(CCNC(=O)CSCc2ccc(C)cc2)cc1OC	-1.96
CCC1CCCCN1CCCNC(=O)c1ccc2c(c1)c(C)c(C)n2C (centres unmarked)	-35
O=C(COc1ccccc1)Nc1ccc2c(c1)Cc1cc(NC(=O)COc3ccccc3)ccc1-2	-0.491
O=C(CN1C(=O)c2ccccc2C1=O)OCCOCCN=C1NS(=O)(=O)c2ccccc21	6.78
CCN(CC)c1nc(C)c2c(c1C#N)CC(C)(C)OC2	1.02
COc1ccc(N=C2S/C(=C\c3ccc(Cl)c([N+](=O)[O-])c3)C(=O)N2CCN(C)C)cc1.Cl	-9.18
OCC[C@@H]1C[C@@H](O)[C@H](O)[C@@]2(CCc3ccccc3O2)O1	20.5
CCc1nc(OCCN(CC)CC)c2oc3ccccc3c2n1.Cl	-58.9
Cc1c(NC(=O)c2ccc(Cl)c(S(=O)(=O)N3CCOCC3)c2)c(=O)n(-c2ccccc2)n1C	16.6
CC(C(=O)NCc1ccc2c(c1)OCO2)N(c1ccccc1)S(C)(=O)=O (centres unmarked)	-8.81
Cc1[nH]c2c(Br)cccc2c1[C@H]1[C@@H](CC#N)C1(C)C	6.14
O=C(O)CC(Sc1n[nH]c(=S)s1)C(=O)O (centres unmarked)	18.2

Compound	hERG current change (%, negative = inhibition) at 10uM [%]
Cc1cccn2c(CNCCCOc3cccnc3)c(C(=O)N3CCOCC3)nc12	3.98
CCOC(=O)[C@@H]1[C@H]2COc3cc(OC)ccc3[C@H]2N2C(=O)N(c3ccc(C(F)(F)F)cc3)C(=O)[C@@]12C	4.74
CC(=O)c1ccc(Cc2ncc(C(F)(F)F)cc2Cl)s1	0.338
CCCCN(C(=O)C1CC1)C1CCS(=O)(=O)C1 (centres unmarked)	-17.3
CNCc1nc2ccccc2[nH]1.Cl	22.5
COc1ccc(CCNC(=O)C2CCN(C(=O)c3ccc(C(C)(C)C)cc3)CC2)cc1OC	5.96
O=C(N/N=C/c1cccc([N+](=O)[O-])c1)c1ccc2c(c1)OCCO2	7.63
CCn1c(=O)c(C(=O)NCc2ccc3c(c2)OCO3)c(O)c2ccccc21	10.8
NN(Cc1ccccc1)C(=S)Nc1ccc(Cl)c(Cl)c1	8.32
CC(C)N(C(=O)CN1C(=O)NC(c2ccccc2)(c2ccccc2)C1=O)C(C)C	6.58
Cc1nn(Cc2ccccc2)c(Cl)c1/C=C1\NC(=S)NC1=O	-0.0551
Nc1ccc(Cl)c(S(=O)(=O)Nc2cccc(Cl)c2)c1	6.88
CN(CC(O)Cn1c2ccccc2c2ccccc21)S(C)(=O)=O (centres unmarked)	5.57
COc1ccc(NS(=O)(=O)NC(=O)c2c[nH]c3ccccc23)cc1	9.1
O=S(=O)(c1ccccc1)N1N=C(c2ccccc2)CC1c1ccco1 (centres unmarked)	11
CC(=O)N1CCN(c2ccc([N+](=O)[O-])cc2)CC1	-55.9
CC1CCCCN1C(=O)c1ccc(COc2ccc([N+](=O)[O-])cc2)o1 (centres unmarked)	-69.9
Cc1cc(C)nc(SCCCNCc2c(F)cccc2Cl)n1.Cl	-8.96
O=C(c1cc2cc(F)ccc2[nH]1)N1CCc2ccccc21	7.64
CC(=O)OCC1O[C@@H](O[C@@H]2C[C@H]3C(C)(C)[C@H](OC(C)=O)CC[C@]3(C)[C@H]3CC[C@]45C[C@]4(CC[C@H]5[C@@H](C)C[C@@H](O)[C@H](O)C(C)(C)O)[C@@]32C)[C@H](O)[C@@H](O)[C@@H]1O (some centres unmarked)	5.55
